Data published in US20260034092A1, “BIOCIDAL COMPOSITION” (priority 2022, published 2026).

System: Pseudomonas aeruginosa ATCC 15 442, Escherichia coli K12 CECT 433, Staphylococcus aureus ATCC 6 538, Enterococcus hirae ATCC 10 541
Conditions: after 10 days of treatment on the sterile plastic container; calculated on the total of all study microorganisms

`CC(O)C(=O)O` (stereo not shown) [Treatment A, lactic acid] was tested, and the “efficiency percentage, Bactericide activity” value was 46.9%.
